About 14,000 (4.5%) of roughly 310,000 compounds showed an effect of 50% or more. The effect is printed as a negative number. The list shows a part of the results.
target: human ether-à-go-go-related gene (hERG) potassium channel (human, UniProt Q12809); assay: primary screen, population patch clamp on CHO cells stably expressing hERG
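Also: peak tail current of the secondary pulse compared with the same well before compound.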

Sequence of human ether-à-go-go-related gene (hERG) potassium channel (Q12809 whole entry, looked up): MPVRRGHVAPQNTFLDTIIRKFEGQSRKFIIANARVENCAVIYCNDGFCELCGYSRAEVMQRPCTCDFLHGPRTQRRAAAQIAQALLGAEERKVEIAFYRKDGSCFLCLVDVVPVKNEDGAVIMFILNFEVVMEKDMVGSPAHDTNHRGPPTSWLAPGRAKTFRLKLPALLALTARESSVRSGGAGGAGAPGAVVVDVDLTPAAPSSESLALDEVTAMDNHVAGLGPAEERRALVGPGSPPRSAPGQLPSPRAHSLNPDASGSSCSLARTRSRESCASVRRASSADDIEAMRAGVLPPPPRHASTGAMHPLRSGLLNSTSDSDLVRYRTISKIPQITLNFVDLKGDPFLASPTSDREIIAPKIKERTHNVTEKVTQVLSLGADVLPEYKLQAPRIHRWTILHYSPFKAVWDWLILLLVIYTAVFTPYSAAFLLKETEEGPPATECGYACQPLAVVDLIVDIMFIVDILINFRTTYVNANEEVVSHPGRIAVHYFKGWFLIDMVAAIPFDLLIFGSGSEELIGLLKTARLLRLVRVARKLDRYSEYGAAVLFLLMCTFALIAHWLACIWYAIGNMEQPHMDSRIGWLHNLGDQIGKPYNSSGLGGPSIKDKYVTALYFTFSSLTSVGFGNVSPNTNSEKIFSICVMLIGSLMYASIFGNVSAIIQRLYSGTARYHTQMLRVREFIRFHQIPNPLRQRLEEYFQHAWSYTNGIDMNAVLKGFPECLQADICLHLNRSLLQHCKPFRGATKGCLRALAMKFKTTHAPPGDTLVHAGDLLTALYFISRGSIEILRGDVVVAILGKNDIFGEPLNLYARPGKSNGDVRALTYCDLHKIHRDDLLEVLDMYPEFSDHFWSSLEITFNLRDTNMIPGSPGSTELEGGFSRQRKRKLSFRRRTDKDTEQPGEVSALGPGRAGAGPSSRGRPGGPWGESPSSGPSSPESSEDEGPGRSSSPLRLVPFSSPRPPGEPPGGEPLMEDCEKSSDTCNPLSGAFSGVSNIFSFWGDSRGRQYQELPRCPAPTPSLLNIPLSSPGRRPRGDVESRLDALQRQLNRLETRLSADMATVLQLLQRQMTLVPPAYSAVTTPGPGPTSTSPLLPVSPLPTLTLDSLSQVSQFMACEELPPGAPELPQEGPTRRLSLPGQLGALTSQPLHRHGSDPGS

SMILES | hERG current change (%, negative = inhibition) at 10uM [%]
CC(=O)NC1C(Oc2ccc(C=O)cc2)OC(COC(C)=O)C(OC(C)=O)C1OC(C)=O (stereo not drawn) | 25.7
CCOC(=O)c1sc(NC(=S)NC(=O)C23CC4CC(CC(C4)C2)C3)cc1C | 20.2
O=C(Cc1cccs1)N1CCC(c2nc3c(nnn3Cc3ccccc3Cl)c(=O)[nH]2)CC1 | -41.7
CC(C)CCSc1nc2ccccc2[nH]1 | 15.9
Cc1cc(S(=O)(=O)NCc2ccccc2)ccc1OCC(=O)N1CCOCC1 | 2.83
Cc1cccc(C)c1NC(=O)CN(C)C(=O)[C@H](C)NC(=O)c1ccco1 | 20.3
Cc1oc(-c2ccccc2)nc1CS(=O)CC(=O)N1CCc2ccccc2C1 (stereo not drawn) | -20.5
O=S(=O)(Nc1ccncc1Cl)c1ccc2ccccc2c1 | 9.75
Cc1nc2ccccn2c1C(=O)c1ccccc1 | -10.6
O=C(O)c1ccc(N/N=C/c2cn(-c3ccccc3)nc2-c2cccs2)cc1 | 8.65
N#Cc1ccc(-c2ccc(OCC3CNC(=O)O3)cc2)cc1 (stereo not drawn) | -1.13
CCN(c1ccccc1C)S(=O)(=O)c1nnc(NC(=O)c2ccco2)s1 | 8.53
COc1ccc(N/C(C)=C2/C(=O)C(=O)N(CCO)C2c2ccc(Br)cc2)cc1 (stereo not drawn) | -49
Oc1ccc(NCc2ccccc2OCc2ccccc2)cc1 | -15.1
CCN(CC)C(=O)CN(C#N)c1nc(Cl)nc(N(C)C)n1 | 16.1
COc1ccc([N+](=O)[O-])c2c(=O)ccoc12 | -14.5
Nc1nc(SCC(=O)Nc2ccc([N+](=O)[O-])cc2)[nH]c(=O)c1NC(=O)c1ccc(Br)cc1 | 13.5
CCN(CC)c1ccc(C=Nc2cc(C)ccc2C)c(O)c1 | 7.25
CCC(=O)n1nc(-c2ccccc2)nc1NCc1ccccc1 | 10.9
CN(C)CCN1C(=O)C(=O)/C(=C(/O)c2ccc(S(=O)(=O)N3CCOCC3)cc2)C1c1ccc(F)cc1 (stereo not drawn) | -4.56
COc1ccc(-c2cc(C(=O)Nc3cccc(O)c3)no2)cc1 | 20.3
CC1Cc2ccccc2N1S(=O)(=O)c1cccc(C(=O)NCCCn2ccnc2)c1 (stereo not drawn) | -50.1

SMILES | hERG current change (%, negative = inhibition) at 10uM [%]
CCCCCN1CC(=O)N2[C@@H](Cc3c([nH]c4ccccc34)C2(C)C)C1=O | 30
Cc1ccc(C(C)NC(=O)c2c(-c3ccccc3)noc2C)cc1C (stereo not drawn) | 16
COC(=O)c1cccc(NC(=O)NC(=O)c2ccc(Cl)cc2)c1 | 6.23
CCOC(=O)C1CCN(C(=O)COc2ccc([N+](=O)[O-])cc2)CC1 | -60.8
Cc1ccc(OCCCN2CCCC2)c(C)c1.O=C(O)C(=O)O | -27.2
O=C(Nc1ccc(CN2CCOCC2)cc1)c1ccc(-c2cccc([N+](=O)[O-])c2)o1 | -48.3
CCOc1ccc(NS(=O)(=O)c2cc(C(=O)N3CCCC3)ccc2Cl)cc1 | -44.1
Cc1ccc(-n2c(Cc3cccn3C)nnc2SCC(=O)NCc2ccco2)cc1 | -11.4
CCOc1cccc(C=Nc2cc(C)cc(C)c2O)c1O | -1.6
O=C(CN1C(=O)CCSc2ccccc21)N1CCC2(CC1)OCCO2 | -0.232
COc1cccc(/C=N/NC(=O)CN2C(=O)NC3NC(=O)NC32)c1 (stereo not drawn) | 6.65
Cc1ccc(/C=C2/NC(=O)N(Cc3ccccc3F)C2=O)o1 | -3.35
COc1ccc(/C=N\NC(=O)COc2ccccc2Cl)cc1Cn1nc(C)cc1C | 8.15
O=C(O)c1ccc(Cl)c(NC(=O)C2CCCN2S(=O)(=O)c2cccc3nsnc23)c1 (stereo not drawn) | 4.38
NC(=O)c1ccc(-c2c(-c3ccccc3)sc3ccccc23)cc1 | 12.4
O=C(O)CC/C(=N\Nc1ccc([N+](=O)[O-])cc1S(=O)(=O)N1CCOCC1)c1cccs1 | -9.21
COc1ccc(NS(=O)(=O)c2ccc(SC)cc2)cc1 | -13.7
CC1CCCN(S(=O)(=O)c2ccc3[nH]c4c(c3c2)CCCC4)C1 (stereo not drawn) | -24.9
CCc1nnc(NC(=O)CSc2nnc(-c3ccccc3NC(=O)c3ccccc3)o2)s1 | 5.78
COc1ccc(CC(=O)NCC2(c3ccc(OC)c(OC)c3)CCCC2)cc1 | -20.8
O=C(CN1C(=O)c2ccccc2C1=O)NCCOc1ccccc1 | -2.09
CCc1nc2ccccc2n1CCC(=O)O.Cl | -5.88

SMILES | hERG current change (%, negative = inhibition) at 10uM [%]
O=C(CNC(=O)c1ccc(Br)o1)NCc1cccc(Cl)c1 | 1.86
CC(=O)Nc1ncc(N=Nc2cccc(C(F)(F)F)c2)s1 | 13.5
O=C(NCCc1nnc2ccc(N3CCCCCC3)nn12)c1ccccc1 | -8.74
COC(=O)c1ccccc1NC(=O)CCS(=O)(=O)c1ccc(Br)s1 | 2.51
CCOCCn1ccc2c(OCC(=O)Nc3cc(OC)ccc3OC)cccc2c1=O | -0.0541
COc1cccc(-c2nnc(SCC(=O)Nc3ccc(OC)c(OC)c3)n2N)c1 | 14.3
O=C(C1CCCN(Cc2ccccc2Br)C1)N1CCCCC1.O=C(O)C(=O)O (stereo not drawn) | -10.8
CSc1ncccc1C(=O)NC1CCCc2c1cnn2-c1ccc(C)c(C)c1 (stereo not drawn) | 12.5
COC(=O)c1c(NC(=O)CN2CCC3(O)CCCCC3C2c2ccccc2OC)sc(C)c1C (stereo not drawn) | 4.06
COc1cc(OC)c(OC)cc1CN1CCN(C(=O)CC(C)C)CC1 | 10
CCOCCCNC(=O)c1ccc2c(c1)N=C(CC)c1cc(Br)ccc1S2 | 2.7
C[C@@H]1CC[C@@]2(O[C@@H](CCO)C[C@H](O)[C@H]2O)O1 | -2
Nc1nc(-c2ccccc2)cs1 | -3.08
O=C(N/C(=C/c1cccs1)C(=O)N1CCOCC1)c1ccco1 | -1.03
COCCCNC(=O)CNC(=O)c1nn(-c2ccc(OC)cc2OC)c(=O)c2ccccc12 | 13.9
COc1cc2cc(CCOC(=O)c3ccc(F)cc3)oc(=O)c2cc1OC | 4.44
NC(N)=NS(=O)(=O)c1ccc(NC(=S)NC(=O)c2ccccc2)cc1 | 3.96
O=C(O)CCc1ccc(-c2ccc(F)cc2)n1CCC(=O)O | 14.9
CCCOc1ccc(C=Nc2ccc(OC)c(S(=O)(=O)N3CCOCC3)c2)c(O)c1 | 12
O=C(OCc1ccc([N+](=O)[O-])cc1)c1ccccn1 | -28.2
COc1ccccc1N1C(=O)C2C(C(=O)c3ccccc3)=NN(c3ccccc3OC)C2C1=O (stereo not drawn) | 7.15
CC1Oc2ccccc2C=C1/C=N/NC(=O)c1ccncc1 (stereo not drawn) | -13.4

SMILES | hERG current change (%, negative = inhibition) at 10uM [%]
O=S(=O)(c1ccccc1)N1CCCC1c1nc2ccccc2s1 (stereo not drawn) | -19.2
COc1cccc(NC(=O)Cc2nnc(SCCOc3ccccc3)n2C)c1 | -10.1
Cc1c(C(Nc2ccccn2)c2ccccc2)c(=O)n(-c2ccccc2)n1C (stereo not drawn) | -4.59
Cc1ccc(S(=O)(=O)N2CCN(C(=O)c3ccc(-n4cncn4)c([N+](=O)[O-])c3)CC2)cc1 | -52.5
COC(=O)CCSCC(=O)Nc1ccc(S(=O)(=O)N2CCOCC2)cc1OC | 5.68
O=C(c1ccc(NS(=O)(=O)c2cccc([N+](=O)[O-])c2)cc1)N1CCCCCC1 | -23.1
CC(=O)/C(C#N)=C1\NC(=O)C(Cc2ccccc2)S1 (stereo not drawn) | 19.7
CSc1nc(-c2ccccc2)nc2c1COC(C)(C)C2 | 5.03
CC1(C)C/C(=N\O)c2cc3c(nc2C1)CCCC3 | 9.17
CCCCN(CCCC)CC(O)CN1C(=O)NC(C)(C)C1=O (stereo not drawn) | -1.82
CCOC(=O)[C@@H]1[C@H]2COc3cc(OC)ccc3[C@@H]2N2C(=O)N(c3ccc(C)cc3)C(=O)[C@@]12C | -6.53
CCOC(=O)c1ccc(-c2n[nH]c(=O)c3ccccc23)cc1 | -3.55
COc1ccccc1CNC(=O)c1sccc1C | -14.9
O=C1/C(=C/c2ccc(C(=O)O)cc2)CCC/C1=C\c1ccc(C(=O)O)cc1 | -24.1
CCN(CC)c1ccc2c(C)cc(=O)oc2c1 | 3.55
O=C(COC(=O)c1ccccc1Br)NCCN1C(=O)CSC1=O | 0.442
O=C(Nc1ccc(Cl)cc1)N1CCc2ccccc2C1 | 4.51
Cl.Fc1ccccc1CCNCc1cccc(Cl)c1Cl | 3.56
CCOC(=O)c1c(C)nc2ccccc2c1-c1ccccc1.Cl | -30.8
COc1ccc2oc(=O)c(-c3nc4ccccc4o3)cc2c1 | -4.29
COc1ccc(CCNC(=O)CC(c2ccccc2)c2cc(C)ccc2O)cc1OC (stereo not drawn) | 4.09
